Target: the molecule itself
Experiment: non-reducing SDS-PAGE and immunoblot

B1: full-length PDGF-C with a C-terminal myc tag (FL-PDGF-C-myc) (natural protein)
chain: not shown
For B1, the “stoichiometry N” value was 2.
